Test results published in PubChem BioAssay AID1345082 (National Center for Advancing Translational Sciences (NCATS), 2018).
Screen size: about 94,000 compounds; about 4,000 (4.3%) were called active. The inconclusive results got no clear call from the source; some entries with a clear call stand among them for comparison. Calls follow the shape of the dose curve; as a rule, active = well fitted inhibition curve with a large enough effect; inconclusive = small, poorly fitted or top-dose-only effect; inactive = no such curve, though single readings can be large or run the other way. Potencies of inconclusive entries are doubtful fits and often do not repeat.

Test: Cytotoxic Profiling in NIH 3T3 Cell Line of Diverse Libraries Using Quantitative High-Throughput Screening; also: nearly all actives have a fitted effect of over 55% in size
Details: NIH 3T3 viability, CellTiter-Glo ATP luminescence, 48-72 h; series mostly up to 96.7 µM
Procedure, shortened: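 Cells were seeded at 400 per well, treated with pin-transferred compound, and kept 48 or 72 hr at 37 °C before CellTiter-Glo addition and luminescence imaging of cellular ATP.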
Potency is read from the fitted curve at half-maximal effect; tags tell the direction and shape of the fitted curve.

SMILES | Potency
COc1cccc2c1OCC(C(=O)N1CCC(Cn3cc(C)cn3)CC1)C2 (stereo not drawn) | inconclusive: 44.7 µM [inhibitor, partial curve, poor fit]
Cc1noc(-c2ccccc2OC2CCN(C(=O)CC3CCCCC3)C2)n1 (stereo not drawn) | inconclusive: 56.2 µM [inhibitor, partial curve, poor fit]
COc1ccc(NC(=O)Cc2c[nH]c3ncc(-c4ccccc4)cc23)cc1 | inconclusive: 56.2 µM [inhibitor, partial curve, poor fit]
O=C(C1CCCN1C(=O)c1ccccc1Cl)N1CCC(c2nc3ccncc3[nH]2)C1 (stereo not drawn) | inactive
Cc1cccc(CC(=O)N2CCCCC2c2noc(COc3ccc(F)cc3)n2)c1 (stereo not drawn) | inconclusive: 44.7 µM [inhibitor, partial curve, poor fit]
O=C(NCCC1CCN(C(=O)Nc2cccc(F)c2)CC1)c1ccccc1 | inactive
COc1ccc(-c2cc(N3CCN(C(=O)c4cccc(Br)c4)CC3)n[nH]2)cc1 | inconclusive: 44.7 µM [inhibitor, partial curve]
COc1ccccc1NC(=O)Cn1ccn2nc(-c3ccc(F)cc3)c(CO)c2c1=O | inactive
O=C(CC1CCCN(c2cnn(CC3CC3)c(=O)c2)C1)N1CCN(c2ccccc2)CC1 (stereo not drawn) | inconclusive: 50.1 µM [inhibitor, partial curve, poor fit]
COc1ccc(N2CC3CCC(C2)N3Cc2ccc(NC(C)=O)cc2)cc1 | inactive
CCc1ccc([S+](=O)([O-])c2nnn3c2nc(N2CCC(F)CC2)c2ccccc23)cc1 | inactive
Cc1ccc(-c2ccccc2CN2CCC(C(=O)NCC3CC3)CC2)cc1Cl | inconclusive: 44.7 µM [inhibitor, partial curve, poor fit]
COc1ccc(OCC(O)CN2CCC(=O)N(Cc3ccco3)Cc3sccc32)cc1 (stereo not drawn) | inconclusive: 50.1 µM [inhibitor, partial curve, poor fit]
COc1ccc(CC(=O)N2CCc3nc(C4CC4)nc(-c4ccc(Cl)cc4)c3C2)cc1 | inconclusive: 50.1 µM [inhibitor, partial curve, poor fit]
CN(C)c1cc(=O)c2ccnc(-c3ccc(F)c(Cl)c3)c2o1 | inconclusive: 112 µM [inhibitor, single point]
CN(Cc1cccnc1)c1nc2c(c(=O)[nH]1)CCN(Cc1cccc(F)c1F)CC2 | inconclusive: 35.5 µM [inhibitor, partial curve, poor fit]
CCOc1ccc(C(=O)NC2CCN(c3cc(-c4ccc(OC)cc4)[nH]n3)C2)cc1OCC (stereo not drawn) | inconclusive: 44.7 µM [inhibitor, partial curve, poor fit]
CCNC(=O)N[C@@H]1C=C[C@@H](c2c(C)nn(-c3ccc(C(F)(F)F)cc3)c2C)C1 | inconclusive: 35.5 µM [inhibitor, partial curve, poor fit]
CC(C)N1C[C@@H](CO)[C@H](c2nc(-c3cccnc3)no2)C1 | inactive
Cc1ccccc1-c1cc(O)c2c(c1)CNCCO2 | inactive
Cc1noc(C)c1-c1cc(-c2ccccc2F)cn2cncc12 | inconclusive: 44.7 µM [inhibitor, partial curve]

SMILES | Potency
Cc1cccc2c1O[C@H]1[C@H](C(N)=O)CN(C(=O)OCC(C)C)[C@@H]21 | inconclusive: 50.1 µM [inhibitor, partial curve, poor fit]
O=c1n(-c2ccc(Cl)cc2)nc2n1CCN(CC1CC1)C2 | inactive
COc1ccccc1C(=O)N[C@@H]1CN(Cc2ccccn2)C[C@H]1CN(C)C | inactive
O=C(c1cnc2n1CCN(CCc1ccccc1)CC2)N1CCC(c2ccccc2)CC1 | inconclusive: 89.1 µM [inhibitor, partial curve, poor fit]
COc1ccccc1OCCNC(=O)CC1=C2CCCCC2N(Cc2ccccc2)C1=O (stereo not drawn) | inactive
CC1CCC2(CC1)NC(=O)N(CC(=O)Nc1ccc(Br)cc1)C2=O (stereo not drawn) | inconclusive: 12.6 µM [inhibitor, full curve, poor fit]
C[C@H]1[C@@H]2[C@H]3OC(=O)[C@@H](C)[C@@H]3CC[C@@]2(C)CC[C@@H]1NS(C)(=O)=O | inconclusive: 56.2 µM [inhibitor, partial curve, poor fit]
Cc1nn(-c2ccccc2)c2c1C(C(C)C)N(C1CN(C(=O)Cc3ccccc3)C1)C2=O (stereo not drawn) | inconclusive: 39.8 µM [inhibitor, partial curve, poor fit]
Cc1cc(C)cc(-c2ccc(CN3CCCC3C(=O)NCCCc3ccccc3)cc2)c1 (stereo not drawn) | inconclusive: 44.7 µM [inhibitor, partial curve, poor fit]
O=C(NCC(F)F)c1nc2cccnc2n(Cc2ccccc2)c1=O | inconclusive: 112 µM [inhibitor, single point]
CCN1c2cc(C(=O)Nc3ccc(OC)c(F)c3)ccc2C(=O)N2CCCCC21 (stereo not drawn) | inconclusive: 12.6 µM [inhibitor, full curve, poor fit]
O=C1Cc2c(-c3ccsc3)n[nH]c2CN1Cc1ccccc1 | inconclusive: 112 µM [inhibitor, partial curve, poor fit]
CN1CCC2(CC1)Cc1ccccc1CN(C(=O)c1cccc(Cl)c1)C2 | inconclusive: 12.6 µM [inhibitor, full curve, poor fit]
COCCN1C(=O)CC[C@]2(C(=O)NCc3ccccc3Cl)CCCC[C@@H]12 | inactive
Cc1ccc(CN2CCCCCCNC(=O)[C@@H]3C[C@@H](C(=O)N4CCc5ccccc5C4)C[C@@H]32)o1 | inconclusive: 50.1 µM [inhibitor, partial curve, poor fit]
Cc1ccc(C)c(C(=O)NCc2nnc3c(-c4nc(C5CC5)no4)cccn23)c1 | inactive
CN(Cc1ccnc2ccccc12)C(=O)c1cn(Cc2ccc(Cl)cc2)nn1 | inconclusive: 50.1 µM [inhibitor, partial curve, poor fit]
O=C(Nc1cnc(-c2cccc(Cl)c2)nc1)c1nccc2ccccc12 | inconclusive: 70.8 µM [inhibitor, partial curve, poor fit]
COCC(=O)NC1CCCN(Cc2ccc(-c3cccc(OC)c3)cc2)C1 (stereo not drawn) | inconclusive: 44.7 µM [inhibitor, partial curve, poor fit]
O=C(Nc1ccc(Cl)cc1)N1CCN(Cc2ccccc2-c2cccnc2)CC1 | active: 35.5 µM
CC(C)C(=O)N1CCC(Cc2ccc(C(N)=O)cc2)CC1 | inactive

SMILES | Potency
CCS(=O)(=O)N1C[C@@H](COc2ccncc2)[C@H](c2ccccn2)C1 | inactive
CC(C)CNC(=O)c1cn2cc(-c3ccc(C(F)(F)F)cc3)sc2n1 | inconclusive: 56.2 µM [inhibitor, partial curve, poor fit]
CCCn1cc(C2CCN(S(=O)(=O)c3c(Cl)cccc3Cl)CC2)c2ccccc21 | inactive
O=C1Nc2ccccc2CC12CCN(Cc1ccc(F)cc1)CC2 | inactive
O=C(c1ccccc1F)N1CCC2(CC1)NC(=O)N(Cc1ccc(F)cc1)C2=O | inactive
Cc1ccccc1-n1nc(C)c(CCC(=O)NCC(C)C)c1Oc1cccc(F)c1 | inconclusive: 44.7 µM [inhibitor, partial curve, poor fit]
Cc1ccc([S+](=O)([O-])N2CCc3nc(-c4ccccc4)nc(-c4ccc(Cl)cc4)c3C2)cc1 | inactive
O=C(NCCCN1CCOCC1)c1ccc(-c2ccc(N3CCCCCC3)nc2)cc1 | inconclusive: 28.2 µM [inhibitor, full curve, poor fit]
Cc1noc(-c2ccn3c(CNC(=O)c4ccc(C)c(C)c4)nnc3c2)n1 | inactive
COc1ccc(CN2C[C@@H]3[C@H](C2)N(CC(C)C)C(=O)C(C)(C)[S+]3(=O)[O-])cc1O | inconclusive: 35.5 µM [inhibitor, partial curve, poor fit]
Cn1cccc1-c1noc(C2CCN(C(=O)c3ccoc3)C2)n1 (stereo not drawn) | inconclusive: 79.4 µM [inhibitor, partial curve, poor fit]
CN(C)[S+](=O)([O-])c1ccc2c(c1)OCCN(Cc1ccsc1)C2 | inconclusive: 50.1 µM [inhibitor, full curve]
Cc1ccc(NC(=O)N2CCCC(c3noc(COc4ccccc4)n3)C2)cc1C (stereo not drawn) | inconclusive: 44.7 µM [inhibitor, partial curve, poor fit]
O=C(Nc1ccccc1)N1CCN(c2ccc3nnc(C4CC4)n3n2)CC1 | inconclusive: 44.7 µM [inhibitor, partial curve]
COc1ccccc1Nc1ccnc(N2CCC(NC(=O)c3cccc(Cl)c3)CC2)n1 | inconclusive: 50.1 µM [inhibitor, partial curve, poor fit]
O=C(Nc1ccccc1)N1CCN(C(=O)c2nc3cccnc3n(CCc3ccccc3)c2=O)CC1 | inconclusive: 50.1 µM [inhibitor, partial curve, poor fit]
CCn1cc(-c2ccc(F)cc2)cc1C(=O)O | inactive
COCCNC(=O)c1cnc2c(c1)N(Cc1ccccc1)CCC2 | inconclusive: 112 µM [inhibitor, single point]
CN1CCC(Cn2ccc3c(N4CCOCC4)nc(-c4cccc(N[S+](C)(=O)[O-])c4)cc32)CC1 | inconclusive: 70.8 µM [inhibitor, single point]
COc1ccc(-c2nc(C(C)C)nc3c2CCN(C(=O)c2cccc(OC)c2)CC3)cc1 | inconclusive: 70.8 µM [inhibitor, single point]
O=C1CC2(CCN(C(=O)C3CCCN(C(=O)c4ccccc4Cl)C3)CC2)Oc2ccccc2N1 (stereo not drawn) | inactive
